In the supplement of paper PMC10369915:
Some of the results follow. No stated cut-off is given here; in the data, active = 3.2 or more and inactive = the rest. Most of these values are background signal.

What was measured:
Test in all cases: enrichment score (SH2-bound / input frequency) (ratio); bacterial display of known human phosphotyrosine sites (pTyr-Var adds point mutants) read by sequencing; higher = stronger binding; tyrosines were phosphorylated by kinases first
Conditions in all cases: peptide library: Human pTyr
[1] = target: SHP2 C-SH2 domain E139D
[2] = target: SHP2 C-SH2 domain wild-type
[3] = target: SHP2 N-SH2 domain L43F
[4] = target: SHP2 N-SH2 domain T42A
[5] = target: SHP2 N-SH2 domain T52S
[6] = target: SHP2 N-SH2 domain wild-type
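Further: displayed peptides selected on beads carrying the immobilized SH2 domain, with library peptides lacking any tyrosine serving as negative controls.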

Binder | enrichment score [1] | enrichment score [2] | enrichment score [3] | enrichment score [4] | enrichment score [5] | enrichment score [6]
AYPATGPYGAPAGPL [LGALS3_HUMAN_107] | inactive: 0.76 | inactive: 0.46 | inactive: 0.303 | inactive: 0.453 | inactive: 0.478 | inactive: 0.416
DLASQPVYCNLQSLG [LRC25_HUMAN_284] | inactive: 1.56 | inactive: 1.32 | inactive: 1.31 | inactive: 1.27 | inactive: 1.49 | inactive: 1.54
GRAAEGAYAAGPGAG [LPP_HUMAN_301_YA] | inactive: 0.675 | inactive: 0.615 | inactive: 0.817 | inactive: 0.579 | inactive: 0.584 | inactive: 0.718
VRDQQLVYSAGVYRL [ANC2_HUMAN_810] | inactive: 0.91 | inactive: 0.793 | inactive: 1.14 | inactive: 1.02 | inactive: 0.985 | inactive: 0.917
DPDSLADYFKKLNYK [LCP2_HUMAN_23] | inactive: 1.7 | inactive: 1.71 | inactive: 1.02 | inactive: 1.54 | inactive: 0.963 | inactive: 1.56
TVPESPNYRNTRTPR [LARP1_HUMAN_777] | inactive: 1.02 | inactive: 0.973 | inactive: 0.934 | inactive: 1.32 | inactive: 1.05 | inactive: 1.21
AGPLIVPYNLPLPGG [LGALS3_HUMAN_118] | inactive: 0.639 | inactive: 0.554 | inactive: 0.616 | inactive: 0.504 | inactive: 0.726 | inactive: 0.69
STEDTAEYSPFKGGY [ANDR_HUMAN_309] | inactive: 0.528 | inactive: 0.48 | inactive: 0.49 | inactive: 0.519 | inactive: 0.497 | inactive: 0.502
GGERPFRYGPRTPVS [LIMC1_HUMAN_313] | inactive: 1.26 | inactive: 1.42 | inactive: 1.01 | inactive: 1.39 | inactive: 1.62 | inactive: 1.52
GAPAPGVYPGPPSGP [LGALS3_HUMAN_79] | inactive: 0.564 | inactive: 0.414 | inactive: 0.439 | inactive: 0.461 | inactive: 0.419 | inactive: 0.405
SSQISNDYVNMTGLD [LAX1_HUMAN_268] | inactive: 0.888 | inactive: 0.582 | inactive: 0.672 | inactive: 0.883 | inactive: 0.714 | inactive: 0.655
SPAVPSIYATLAIHG [LIRB1_HUMAN_644] | inactive: 1.75 | inactive: 2.17 | inactive: 1.3 | inactive: 2.66 | inactive: 1.5 | inactive: 1.62
NIQELNVYSEAQEPK [LPXN_HUMAN_72] | inactive: 0.728 | inactive: 0.627 | inactive: 0.645 | inactive: 0.639 | inactive: 0.816 | inactive: 0.94
YGIGFSRYKEDYIET [LMTK2_HUMAN_291] | inactive: 0.64 | inactive: 1.86 | inactive: 0.984 | inactive: 1.15 | inactive: 0.942 | inactive: 1.18
SKKTFASYMPQFQTC [LEPR_HUMAN_1141] | inactive: 1.81 | inactive: 1.7 | inactive: 1.57 | inactive: 1.42 | inactive: 1.85 | inactive: 2.32
SGPLENVYESIRELG [LIME1_HUMAN_254] | inactive: 0.755 | inactive: 0.741 | inactive: 0.824 | inactive: 0.527 | inactive: 0.757 | inactive: 0.806
VEIGNPTYKMAEGGE [LRP1_HUMAN_4473_YA] | inactive: 0.851 | inactive: 0.716 | inactive: 0.77 | inactive: 0.818 | inactive: 0.966 | inactive: 0.719
IPTSAPVYQQPQQQP [LASP1_HUMAN_171] | inactive: 0.749 | inactive: 0.617 | inactive: 0.763 | inactive: 0.744 | inactive: 0.746 | inactive: 0.814

Binder | enrichment score [1] | enrichment score [2] | enrichment score [3] | enrichment score [4] | enrichment score [5] | enrichment score [6]
DGEDDGDYESPNEEE [LCP2_HUMAN_128] | inactive: 0.78 | inactive: 0.948 | inactive: 0.708 | inactive: 0.676 | inactive: 0.924 | inactive: 0.844
AAQVDVLYSRVCKPK [LIME1_HUMAN_200] | inactive: 0.946 | inactive: 1.15 | inactive: 0.816 | inactive: 0.866 | inactive: 0.807 | inactive: 0.794
DLPDELLYGRAGYLY [LANC2_HUMAN_198] | inactive: 0.709 | inactive: 0.72 | inactive: 0.793 | inactive: 0.805 | inactive: 0.773 | inactive: 0.732
AAAQSRDYANFPLAL [ANDR_HUMAN_364_YA] | inactive: 0.528 | inactive: 0.572 | inactive: 0.734 | inactive: 0.61 | inactive: 0.69 | inactive: 0.576
KIVSGKDYNVTANSK [LDHA_HUMAN_83] | inactive: 0.902 | inactive: 0.755 | inactive: 1.37 | inactive: 0.924 | inactive: 0.88 | inactive: 1.27
TFLASGDYADFQPFT [LAX1_HUMAN_345] | inactive: 0.472 | inactive: 0.524 | inactive: 0.504 | inactive: 0.626 | inactive: 0.344 | inactive: 0.454
APSSGQIYGSGPQGY [LPP_HUMAN_244] | inactive: 0.5 | inactive: 0.553 | inactive: 0.67 | inactive: 0.535 | inactive: 0.679 | inactive: 0.683
AAYQSRDYYNFPLAL [ANDR_HUMAN_364] | inactive: 2.14 | inactive: 2.35 | inactive: 2.11 | inactive: 2.17 | inactive: 2.42 | inactive: 2.88
FSRAKEDYIETDDKK [LMTK2_HUMAN_295_YA] | inactive: 1.2 | inactive: 1.35 | inactive: 1.26 | inactive: 0.979 | inactive: 1.25 | inactive: 1.26
EAPQDVTYAQLHSLT [LIRB1_HUMAN_614] | inactive: 0.893 | inactive: 1.1 | inactive: 0.878 | inactive: 2.71 | inactive: 0.718 | inactive: 0.61
TNFTNPVYATLYMGG [LRP1_HUMAN_4507] | inactive: 1.86 | active: 4.08 | inactive: 1.99 | active: 3.46 | inactive: 1.53 | inactive: 1.27
ALDEAAAYQSRDYYN [ANDR_HUMAN_359] | inactive: 0.562 | inactive: 0.522 | inactive: 0.736 | inactive: 0.479 | inactive: 0.555 | inactive: 0.462
AGLAHSNYKEDAALT [LMTK3_HUMAN_292_YA] | inactive: 0.956 | inactive: 0.788 | inactive: 0.659 | inactive: 0.79 | inactive: 0.56 | inactive: 0.763
FPNSNSMYIDRPPSG [LCP2_HUMAN_173] | inactive: 0.632 | inactive: 0.475 | inactive: 0.608 | inactive: 0.509 | inactive: 0.578 | inactive: 0.582
VRDQQLVYSAGVARL [ANC2_HUMAN_810_YA] | inactive: 0.756 | inactive: 0.683 | inactive: 0.744 | inactive: 0.673 | inactive: 1 | inactive: 0.775
KDETFGEYRSLESDN [L1CAM_HUMAN_1176] | inactive: 0.897 | inactive: 0.762 | inactive: 0.801 | inactive: 0.713 | inactive: 0.904 | inactive: 0.899
ADEDEDDYHNPGALV [LAT_HUMAN_156_YA] | inactive: 1.2 | inactive: 1.11 | inactive: 0.777 | inactive: 1.02 | inactive: 1.11 | inactive: 1.31
AAPATGPYGAPAGPL [LGALS3_HUMAN_107_YA] | inactive: 0.79 | inactive: 0.482 | inactive: 0.55 | inactive: 0.433 | inactive: 0.81 | inactive: 0.758
